Data taken from the supplement of paper PMC10126150.
Sequences with one replicate were seen in a single cluster, so their values are uncertain.

Test system: ATP
Assay: switch fluorescence ratio, 500 uM ATP over buffer (Cy3 cluster intensity, sum of 5 cycles each) (fold (ratio)); higher = stronger signal-on switching upon ATP binding; sequences stand for … in TCGTCGGCAGCGTCAGATGTGTATAAGAGACAGTTTTTTTTTTTTTTTTTTTTTTTTT…TC
Details: aptamer strand: ATP DNA aptamer (quencher-CACCTGGGGGAGTATTGCGGAGGAAGG + anchor), 100 nM annealed; ATP concentration: 500 uM; one replicate
In short: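 Clusters carrying Cy3-labelled switching strands on a modified Illumina MiSeq flow-cell were annealed to 100 nM quencher-labelled ATP aptamer and imaged in selection buffer. They were imaged again after 15 min with 500 uM ATP at 22 °C, over five buffer/ATP cycles with NaOH stripping and re-annealing in between. For each cluster, the fluorescence ratio is the summed Cy3 intensity of the target cycles divided by that of the buffer cycles, averaged per switch-domain sequence. Clusters outside 100-1000 RFU were left out.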
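Further: ATP exposure 15 min at 22 °C before imaging.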

Sequence | switch fluorescence ratio
CACGAAGGTT | 0.966
AGCCTTGC | 1.11
TGTTATTCGG | 0.998
TTCCGCGGTG | 1.04
TTTCCATGA | 1.02
TACATCCAGG | 2.07
GCCCATTACT | 1.18
CAGGTGCGGT | 1.46
CGACGGCTTA | 1.15
CGGTAGCGTG | 1.03
CTAAGACTGA | 1
ATGATTGAGA | 1.11
TACGAGTCAT | 1.07
TTCTCCCGTA | 1.07
GGCTTCGCGA | 1.94
ACGGTCTGGT | 1.02
AGAAGTGCAC | 0.936
ACTCTTGACA | 1.04
TTTAGCTATT | 0.988
GGCCTGCCTT | 0.997
GACATGGTGG | 1
GAAAGGTGGA | 1.01
CATGGCATAA | 1.08

Sequence | switch fluorescence ratio
GGCGGGGTAT | 1.14
CACGCTTAGG | 1.01
CTACCCGCGA | 4.09
TCGTATATGA | 0.983
ACTGGGAGCC | 0.972
AATGGTGACA | 0.98
TTCATTCGTA | 0.994
AATTCGACTA | 0.959
CCTGCCGCCG | 2.07
AACCTGCGCG | 1.15
TATCAGGGAA | 0.978
GAATAATCGG | 1.02
CACGGGATCC | 0.99
GTTGTGCAT | 1.02
ATTTCGTGCT | 0.972
GAAGCTTAGG | 1.03
TGGCGCGTGC | 1.18
AGATGTTACG | 1.01
TGGCCGAAGT | 1.07
TTCGGCGAAA | 1.06
TGAAACGGG | 0.998
TTATAAATGA | 0.991
CAACACTTAT | 1.03

Sequence | switch fluorescence ratio
GACCCTATGT | 1.03
AGCCTTATTG | 0.987
ATCAATATAA | 0.983
TTATGTCGCT | 0.957
TTACGTAGGT | 1.1
ATGGCGTTGA | 1.01
AAACGCCCAA | 1.16
CAATGCGTAA | 1.06
GAACCCCGT | 0.973
TTCGCGTTAC | 3.8
CTATACCTAA | 1.04
TGTGAACATG | 1.04
GATGGATTAC | 1.33
TTGATGAATC | 0.997
CAGAGCCCCG | 1
ATTCAGTGCG | 1.01
GCAGGCCATT | 1.19
ACACAGAAGA | 1.04
ACTGCAATGT | 1.67
TGCGAACAAA | 1
CCAGGAGCCC | 1.13
GCCCCAATTG | 1.07
TTTTACTAAC | 1.17

Sequence | switch fluorescence ratio
AGTGTGCTAT | 0.944
CTAGCTTGGT | 1
GTAAAGAGTA | 1.01
GAGTGGCCTG | 0.918
GACAGTGTAC | 1.29
ACAAGATTAG | 1.03
GTTATGTCGA | 0.957
TCTCGACAAC | 1.14
TGCCTGGACG | 0.996
TATAGGGTCG | 0.91
AAAGCACCGG | 1.14
TTGTCCGGGT | 1.04
AGTGAAGTCT | 1
CGTTCTAGCA | 1.04
TCCGCGATCT | 1.44
ATGGCGAAGG | 1.02
ATATTTTCCG | 0.968
ACGCTTCTAG | 1.03
AACCCCACGG | 1.46
AGGGCGAGGA | 0.967
AGTTGGGCCT | 1.05
GTTGCACCAG | 1.02
TATTTAGC | 0.961

Sequence | switch fluorescence ratio
CCGGGGCAGC | 2.24
TCTGACTGAG | 1
TTGCCATATG | 1.02
CGTGCAGACA | 1
CGTCGGGCAG | 1.02
GGCTCTTGCA | 1.04
ATGAAAGT | 1.04
GGACGGAGTG | 0.952
AGCAGCCGGG | 1.06
GGCGTACTCT | 1.02
CAAAGTGTTG | 1
TTGTTTAATG | 0.962
AGAAGGCGGA | 0.968
CCTTTCGGCA | 1.35
AGATCAGGGT | 0.981
CAGAACAATA | 1.06
TTGATTGTC | 1.03
ATCCTGACTC | 2.01
GTGCGAGGGC | 1.02
GAATGATTAC | 1.1
CCCCACCCTC | 1.67
ATAGTGGCTG | 0.977
GTGAGAGTGG | 0.986

Sequence | switch fluorescence ratio
CCCAGCGCGA | 2.3
AGGCACGCAC | 1.76
AAACACATAC | 1.57
CCCAATCAA | 1.09
CCGCCGAGTA | 1.75
CTTTATACGT | 1.05
CCCTCGGACT | 1.01
ATTGCCACAG | 1.06
ATTCACGGTA | 1.12
CGCTGGCGTG | 0.993
CCTGACAAAA | 1.14
AAGGTCAACA | 1.01
GTGCAAACGG | 1.03
TCCGGGCCAT | 1.2
GCTAGAGCGA | 1.05
TGAGCTGGTC | 0.992
ATTGTCTTAT | 1.01
TAAAGAGACC | 1.02
GGTAAATATA | 1.03
ACAAGTTTCG | 0.994
CACTGCAG | 1.01
GCCAGGAGAC | 1.03
ACTGCGAAAT | 2.53

Sequence | switch fluorescence ratio
CAGTTTGGAC | 0.997
AGGAGGACTA | 1.02
ATCAAGGGGC | 1.07
CTATTAGAAA | 1.02
GGTACTAGCC | 1.06
TATAAGTATT | 0.976
TTATAGTTAA | 0.99
GGGGCG | 0.968
CTTTTTGTAT | 0.97
GCATCAGCGT | 1.01
TGATCACATG | 0.989
GGGACGAATA | 1.02
GAATGCTTTA | 1
GTTTTTGTAG | 0.999
TTATATAGTT | 1.02
AGAGCACGGT | 0.997
GTTTCGAGTC | 0.989
AAAACCGATT | 1.05
TCGGTTAAGA | 1.02
